This note sets out measurements from patent US20120076787A1 (published 2012).

Test [1] has as its target T1, recombinant human VEGFR2 Fc Chimera (R&D Systems, 357-KD-050) (human, UniProt P35968 20-764).
T1 construct: Bought reagent; also called VEGF receptor; Fc part of the bought chimera not given
Put plainly: bridging ELISA: coated VEGFR2 Fc, titrated BPC1821, detection with biotinylated B7-1 Fc and ExtrAvidin peroxidase; x axis is dilution factor. (In general: An ELISA detects its analyte on a solid surface through an enzyme-linked reagent.)

In test [2] the target is T2, Recombinant human B7-1 Fc Chimera (RnD Systems, 140-B1-100), biotinylated (human, UniProt P33681 35-242, biotinylated (ECL biotinylation module, GE Healthcare, at a quarter of the kit recommended level)).
T2 construct: Bought reagent; also called biotinylated B7-1; Fc part of the bought chimera not given
T2 sequence (looked up): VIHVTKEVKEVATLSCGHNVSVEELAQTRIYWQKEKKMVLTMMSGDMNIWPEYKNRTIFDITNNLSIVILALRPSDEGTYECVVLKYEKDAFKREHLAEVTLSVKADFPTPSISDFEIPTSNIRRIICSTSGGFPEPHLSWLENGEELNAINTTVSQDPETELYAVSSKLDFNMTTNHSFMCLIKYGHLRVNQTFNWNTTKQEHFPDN
As to the kind of experiment: bridging ELISA: coated VEGFR2 Fc, titrated BPC1821, detection with biotinylated B7-1 Fc (1 ug/mL) and ExtrAvidin peroxidase; x axis is dilution factor.

The next test concerns the target T3, human VEGF165 (human, UniProt P15692-4 27-191).
T3 construct: also called VEGF (R&D Systems, Cat No: 293-VE-050); human VEGF165 (in-house material)
T3 sequence (looked up): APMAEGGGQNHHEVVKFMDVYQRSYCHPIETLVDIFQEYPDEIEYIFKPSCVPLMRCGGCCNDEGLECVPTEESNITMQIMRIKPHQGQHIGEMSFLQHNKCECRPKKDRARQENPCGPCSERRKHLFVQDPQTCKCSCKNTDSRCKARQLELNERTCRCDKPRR
As to the kind of experiment: bridging ELISA: coated human VEGF165, titrated BPC1824, detection with biotinylated B7-1 Fc and ExtrAvidin peroxidase.

T1 sequence (P35968 20-764, change not shown): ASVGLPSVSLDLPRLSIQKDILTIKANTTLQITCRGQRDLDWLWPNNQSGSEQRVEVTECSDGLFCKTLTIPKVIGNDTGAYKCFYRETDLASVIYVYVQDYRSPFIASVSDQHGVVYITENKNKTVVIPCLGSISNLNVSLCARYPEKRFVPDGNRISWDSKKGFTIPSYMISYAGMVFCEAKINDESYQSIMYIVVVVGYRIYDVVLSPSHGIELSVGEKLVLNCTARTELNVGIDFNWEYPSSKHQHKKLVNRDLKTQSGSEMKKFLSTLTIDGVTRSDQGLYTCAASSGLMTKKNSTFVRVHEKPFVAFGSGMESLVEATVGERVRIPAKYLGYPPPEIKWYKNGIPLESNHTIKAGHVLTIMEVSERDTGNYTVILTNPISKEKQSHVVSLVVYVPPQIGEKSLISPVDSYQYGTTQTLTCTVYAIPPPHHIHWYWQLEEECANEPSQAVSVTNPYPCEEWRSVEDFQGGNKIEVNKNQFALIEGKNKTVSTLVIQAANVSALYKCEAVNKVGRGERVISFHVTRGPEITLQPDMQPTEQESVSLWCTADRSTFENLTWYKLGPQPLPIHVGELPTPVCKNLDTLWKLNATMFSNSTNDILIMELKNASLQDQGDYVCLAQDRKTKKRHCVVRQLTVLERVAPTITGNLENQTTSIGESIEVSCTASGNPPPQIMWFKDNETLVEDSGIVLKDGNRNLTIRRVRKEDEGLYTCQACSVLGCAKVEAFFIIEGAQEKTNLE

B1: BPC1821 (CTLA4-Ig fused to anti-VEGFR2 adnectin CT01 via a GS linker) (Fc fusion)
chain: [sequence of about 350 residues with a human IgG1 Fc not given]GSEVVAATPTSLLISWRHPHFPTRYYRITYGETGGNSPVQEFTVPLQPPTATISGLKPGVDYTITVYAVTDGRNGRLLSIPISINYRT
notes: also called bispecific BPC1821
Regarding B1, the binding result in test [1] and in test [2] was “binds” in each case.

B2: BPC1824 (CTLA4-Ig-anti-IL-13 dAb fusion) (Fc fusion)
chain: [sequence of about 350 residues with a human IgG1 Fc not given]GSGVQLLESGGGLVQPGGSLRLSCAASGFVFPWYDMGWVRQAPGKGLEWVSSIDWHGKITYYADSVKGRFTISRDNSKNTLYLQMNSLRAEDTAVYYCATAEDEPGYDYWGQGTLVTVSS
notes: Negative control of the VEGF/B7-1 bridging ELISA
For B2, the binding result with human VEGF165 is reported as “no binding”.
